Experimental data reported in paper PMC9911399, “Two distinct binding modes provide the RNA-binding protein RbFox with extraordinary sequence specificity”.
Positions count from the first letter of the chain named. Some of the results follow.

T1: RBFOX1 RRM RbFoxmut (Fox-RRM*) (Homo sapiens, UniProt Q9NWB1 109-208, R118D;E147R;N151S;E152T)
T1 sequence: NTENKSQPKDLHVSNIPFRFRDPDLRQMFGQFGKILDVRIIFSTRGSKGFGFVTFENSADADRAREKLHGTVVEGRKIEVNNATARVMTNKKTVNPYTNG

B1: GCAUGGC (DNA:RNA)
RNA: GGGAGACCGGAAUUCAGAUUGUCCGCAUGGCUUAAAUCCCGUCGUAGCCACCA
DNA 1: CAATCTGAATTCCGGTCTCCC
DNA 2: TGGTGGCTACGACGGGATT
B2: UCUGACG (DNA:RNA)
RNA: B1 RNA with G25U, A27U, U28G, G29A, G30C, C31G
DNA 1: CAATCTGAATTCCGGTCTCCC
DNA 2: TGGTGGCTACGACGGGATT
B3: UGCCUGU (DNA:RNA)
RNA: B1 RNA with G25U, C26G, A27C, U28C, G29U, C31U
DNA 1: CAATCTGAATTCCGGTCTCCC
DNA 2: TGGTGGCTACGACGGGATT
B4: GGCUGUU (DNA:RNA)
RNA: B1 RNA with C26G, A27C, G30U, C31U
DNA 1: CAATCTGAATTCCGGTCTCCC
DNA 2: TGGTGGCTACGACGGGATT
B5: CAAGCUA (DNA:RNA)
RNA: B1 RNA with G25C, C26A, U28G, G29C, G30U, C31A
DNA 1: CAATCTGAATTCCGGTCTCCC
DNA 2: TGGTGGCTACGACGGGATT
B6: UAGGGAG (DNA:RNA)
RNA: B1 RNA with G25U, C26A, A27G, U28G, G30A, C31G
DNA 1: CAATCTGAATTCCGGTCTCCC
DNA 2: TGGTGGCTACGACGGGATT
B7: GUAGUUG (DNA:RNA)
RNA: B1 RNA with C26U, U28G, G29U, G30U, C31G
DNA 1: CAATCTGAATTCCGGTCTCCC
DNA 2: TGGTGGCTACGACGGGATT
B8: GGGCAGU (DNA:RNA)
RNA: B1 RNA with C26G, A27G, U28C, G29A, C31U
DNA 1: CAATCTGAATTCCGGTCTCCC
DNA 2: TGGTGGCTACGACGGGATT
B9: AAAUGGG (DNA:RNA)
RNA: B1 RNA with G25A, C26A, C31G
DNA 1: CAATCTGAATTCCGGTCTCCC
DNA 2: TGGTGGCTACGACGGGATT
B10: CCCUUGA (DNA:RNA)
RNA: B1 RNA with G25C, A27C, G29U, C31A
DNA 1: CAATCTGAATTCCGGTCTCCC
DNA 2: TGGTGGCTACGACGGGATT
B11: CUCUAUU (DNA:RNA)
RNA: B1 RNA with G25C, C26U, A27C, G29A, G30U, C31U
DNA 1: CAATCTGAATTCCGGTCTCCC
DNA 2: TGGTGGCTACGACGGGATT
B12: CAUGGAG (DNA:RNA)
RNA: B1 RNA with G25C, C26A, A27U, U28G, G30A, C31G
DNA 1: CAATCTGAATTCCGGTCTCCC
DNA 2: TGGTGGCTACGACGGGATT
B13: GAGUCGU (DNA:RNA)
RNA: B1 RNA with C26A, A27G, G29C, C31U
DNA 1: CAATCTGAATTCCGGTCTCCC
DNA 2: TGGTGGCTACGACGGGATT
B14: GUCACUU (DNA:RNA)
RNA: B1 RNA with C26U, A27C, U28A, G29C, G30U, C31U
DNA 1: CAATCTGAATTCCGGTCTCCC
DNA 2: TGGTGGCTACGACGGGATT
B15: GCGGAGU (DNA:RNA)
RNA: B1 RNA with A27G, U28G, G29A, C31U
DNA 1: CAATCTGAATTCCGGTCTCCC
DNA 2: TGGTGGCTACGACGGGATT
B16: UCAUGGC (DNA:RNA)
RNA: B1 RNA with G25U
DNA 1: CAATCTGAATTCCGGTCTCCC
DNA 2: TGGTGGCTACGACGGGATT
B17: UAUUAUA (DNA:RNA)
RNA: B1 RNA with G25U, C26A, A27U, G29A, G30U, C31A
DNA 1: CAATCTGAATTCCGGTCTCCC
DNA 2: TGGTGGCTACGACGGGATT
B18: AUGACAC (DNA:RNA)
RNA: B1 RNA with G25A, C26U, A27G, U28A, G29C, G30A
DNA 1: CAATCTGAATTCCGGTCTCCC
DNA 2: TGGTGGCTACGACGGGATT
B19: ACCGAGG (DNA:RNA)
RNA: B1 RNA with G25A, A27C, U28G, G29A, C31G
DNA 1: CAATCTGAATTCCGGTCTCCC
DNA 2: TGGTGGCTACGACGGGATT
B20: CCAGAUC (DNA:RNA)
RNA: B1 RNA with G25C, U28G, G29A, G30U
DNA 1: CAATCTGAATTCCGGTCTCCC
DNA 2: TGGTGGCTACGACGGGATT
B21: ACGAGAA (DNA:RNA)
RNA: B1 RNA with G25A, A27G, U28A, G30A, C31A
DNA 1: CAATCTGAATTCCGGTCTCCC
DNA 2: TGGTGGCTACGACGGGATT
B22: UGCUUAG (DNA:RNA)
RNA: B1 RNA with G25U, C26G, A27C, G29U, G30A, C31G
DNA 1: CAATCTGAATTCCGGTCTCCC
DNA 2: TGGTGGCTACGACGGGATT
B23: CGUCCGA (DNA:RNA)
RNA: B1 RNA with G25C, C26G, A27U, U28C, G29C, C31A
DNA 1: CAATCTGAATTCCGGTCTCCC
DNA 2: TGGTGGCTACGACGGGATT
B24: GGAAAAC (DNA:RNA)
RNA: B1 RNA with C26G, U28A, G29A, G30A
DNA 1: CAATCTGAATTCCGGTCTCCC
DNA 2: TGGTGGCTACGACGGGATT
B25: UAAUCUC (DNA:RNA)
RNA: B1 RNA with G25U, C26A, G29C, G30U
DNA 1: CAATCTGAATTCCGGTCTCCC
DNA 2: TGGTGGCTACGACGGGATT
B26: GCCAUAA (DNA:RNA)
RNA: B1 RNA with A27C, U28A, G29U, G30A, C31A
DNA 1: CAATCTGAATTCCGGTCTCCC
DNA 2: TGGTGGCTACGACGGGATT
B27: CCUAGGG (DNA:RNA)
RNA: B1 RNA with G25C, A27U, U28A, C31G
DNA 1: CAATCTGAATTCCGGTCTCCC
DNA 2: TGGTGGCTACGACGGGATT
B28: UUGAUCU (DNA:RNA)
RNA: GGGAGACCGGAAUUCAGAUUGUCCUUGAUCUUUAAAUCCCGUCGUAGCCACCA
DNA 1: CAATCTGAATTCCGGTCTCCC
DNA 2: TGGTGGCTACGACGGGATT
B29: UUGGGUC (DNA:RNA)
RNA: B28 RNA with A28G, U29G, C30U, U31C
DNA 1: CAATCTGAATTCCGGTCTCCC
DNA 2: TGGTGGCTACGACGGGATT
B30: ACUAUAG (DNA:RNA)
RNA: B28 RNA with U25A, U26C, G27U, C30A, U31G
DNA 1: CAATCTGAATTCCGGTCTCCC
DNA 2: TGGTGGCTACGACGGGATT
B31: GAAUUAC (DNA:RNA)
RNA: B1 RNA with C26A, G29U, G30A
DNA 1: CAATCTGAATTCCGGTCTCCC
DNA 2: TGGTGGCTACGACGGGATT

Each binder was assayed against T1, RBFOX1 RRM RbFoxmut (Fox-RRM*) (assay: EMSA; HiTS-Eq, 1 nM pool, 10 min; buffer printed only for the single-RNA assays: 10 mM Tris pH 7.5, 150 mM NaCl, 3.4 mM EDTA, 0.001% NP-40, 30 C). Conditions: tags: His6 N-terminal (pET28a); label: 5' 32P.
Procedure, shortened: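 Purified RbFox RRM (wild type or mutant) was equilibrated for 10 min in 50 µL with 1 nM of a 5′-radiolabelled pool of RNA with 7 randomized nucleotides, its flanks annealed to DNA oligonucleotides, across increasing protein concentrations. Free RNA was separated by 8% native PAGE, excised, reverse-transcribed, PCR-barcoded and sequenced on an Illumina HiSeq 2500. Relative association constants came from read-count changes of each variant against the control reaction, normalised to the cognate motif.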

Row | Binder | binding signal
1 | B1 | 0.497 KA relative to UGCAUGU
2 | B2 | 0.0906 KA relative to UGCAUGU
3 | B3 | 0.279 KA relative to UGCAUGU
4 | B4 | 0.11 KA relative to UGCAUGU
5 | B5 | 0.126 KA relative to UGCAUGU
6 | B6 | 0.105 KA relative to UGCAUGU
7 | B7 | 0.161 KA relative to UGCAUGU
8 | B8 | 0.0981 KA relative to UGCAUGU
9 | B9 | 0.0585 KA relative to UGCAUGU
10 | B10 | 0.118 KA relative to UGCAUGU
11 | B11 | 0.107 KA relative to UGCAUGU
12 | B12 | 0.123 KA relative to UGCAUGU
13 | B13 | 0.121 KA relative to UGCAUGU
14 | B14 | 0.0681 KA relative to UGCAUGU
15 | B15 | 0.135 KA relative to UGCAUGU
16 | B16 | 0.106 KA relative to UGCAUGU

Row | Binder | binding signal
17 | B17 | 0.14 KA relative to UGCAUGU
18 | B18 | 0.0498 KA relative to UGCAUGU
19 | B19 | 0.0689 KA relative to UGCAUGU
20 | B20 | 0.0639 KA relative to UGCAUGU
21 | B21 | 0.105 KA relative to UGCAUGU
22 | B22 | 0.136 KA relative to UGCAUGU
23 | B23 | 0.0926 KA relative to UGCAUGU
24 | B24 | 0.0538 KA relative to UGCAUGU
25 | B25 | 0.0855 KA relative to UGCAUGU
26 | B26 | 0.119 KA relative to UGCAUGU
27 | B27 | 0.0668 KA relative to UGCAUGU
28 | B28 | 0.0666 KA relative to UGCAUGU
29 | B29 | 0.179 KA relative to UGCAUGU
30 | B30 | 0.128 KA relative to UGCAUGU
31 | B31 | 0.117 KA relative to UGCAUGU
